Where a name gives a salt, the structure may show the parent alone. Some values that stand alone complete this part of the results.
Experiment: TGA and DSC/mDSC thermal analysis (characterization of forms)
Format: physicochemical
Conditions: for DSC, middle temperature (starred values): amorphous fumarate, *middle temperature of thermogravimetry
Description: In salt screening and evaluation and in polymorph study, TGA was performed using a TA Q500, TA Q5000 or Discovery 5500 TGA from TA Instruments. DSC or mDSC was performed using a TA Q200/Q2000 or Discovery 2500 DSC from TA Instruments.

[1] = fumarate forms, first DSC endotherm peak
[2] = fumarate forms, second DSC endotherm peak

Compound	DSC endotherm (° C., peak) (crystalline salts, first DSC endotherm peak) [°C]	DSC endotherm (° C., peak) (crystalline salts, second DSC endotherm peak) [°C]	DSC endotherm (° C., peak) [1] [°C]	DSC endotherm (° C., peak) [2] [°C]	DSC, middle temperature (starred values) (first thermal event) [°C]	DSC, middle temperature (starred values) (second thermal event) [°C]
COc1ccc2ncnc(Nc3ccc(Oc4cc5ncnn5cn4)c(C)c3)c2c1O[C@@H]1CCN(C)CC1(F)F [Fumarate Type B, (R)-N-(4-([1,2,4]triazolo[1,5-c]pyrimidin-7-yloxy)-3-methylphenyl)-5-((3,3-difluoro-1-methylpiperidin-4-yl)oxy)-6-methoxyquinazolin-4-amine]	91.3	166.3	91.3	166.3	–	–
COc1ccc2ncnc(Nc3ccc(Oc4cc5ncnn5cn4)c(C)c3)c2c1O[C@@H]1CCN(C)CC1(F)F [Fumarate Type E, (R)-N-(4-([1,2,4]triazolo[1,5-c]pyrimidin-7-yloxy)-3-methylphenyl)-5-((3,3-difluoro-1-methylpiperidin-4-yl)oxy)-6-methoxyquinazolin-4-amine]	–	–	134.5	166.0	–	–
COc1ccc2ncnc(Nc3ccc(Oc4cc5ncnn5cn4)c(C)c3)c2c1O[C@@H]1CCN(C)CC1(F)F [Amorphous Fumarate, (R)-N-(4-([1,2,4]triazolo[1,5-c]pyrimidin-7-yloxy)-3-methylphenyl)-5-((3,3-difluoro-1-methylpiperidin-4-yl)oxy)-6-methoxyquinazolin-4-amine]	–	–	–	–	79.9	107.5

Reference: US20240417403A1, “CRYSTALLINE FORMS OF QUINAZOLINE DERIVATIVES, PREPARATION, COMPOSITION AND USE THEREOF” (Hoffmann-La Roche Inc., priority 2021, published 2024)
